In article PMC4336329 (PLoS ONE, 2015):
Hit rate of the full screen: of about 310,000 compounds, about 2,200 (0.71%) showed an effect of 50% or more. The effect is printed as a negative number. Some of the results follow.

What follows are compounds tested against human ether-à-go-go-related gene (hERG) potassium channel (human, UniProt Q12809) (assay: primary screen, population patch clamp on CHO cells stably expressing hERG).
Chain of human ether-à-go-go-related gene (hERG) potassium channel (Q12809 whole entry, looked up): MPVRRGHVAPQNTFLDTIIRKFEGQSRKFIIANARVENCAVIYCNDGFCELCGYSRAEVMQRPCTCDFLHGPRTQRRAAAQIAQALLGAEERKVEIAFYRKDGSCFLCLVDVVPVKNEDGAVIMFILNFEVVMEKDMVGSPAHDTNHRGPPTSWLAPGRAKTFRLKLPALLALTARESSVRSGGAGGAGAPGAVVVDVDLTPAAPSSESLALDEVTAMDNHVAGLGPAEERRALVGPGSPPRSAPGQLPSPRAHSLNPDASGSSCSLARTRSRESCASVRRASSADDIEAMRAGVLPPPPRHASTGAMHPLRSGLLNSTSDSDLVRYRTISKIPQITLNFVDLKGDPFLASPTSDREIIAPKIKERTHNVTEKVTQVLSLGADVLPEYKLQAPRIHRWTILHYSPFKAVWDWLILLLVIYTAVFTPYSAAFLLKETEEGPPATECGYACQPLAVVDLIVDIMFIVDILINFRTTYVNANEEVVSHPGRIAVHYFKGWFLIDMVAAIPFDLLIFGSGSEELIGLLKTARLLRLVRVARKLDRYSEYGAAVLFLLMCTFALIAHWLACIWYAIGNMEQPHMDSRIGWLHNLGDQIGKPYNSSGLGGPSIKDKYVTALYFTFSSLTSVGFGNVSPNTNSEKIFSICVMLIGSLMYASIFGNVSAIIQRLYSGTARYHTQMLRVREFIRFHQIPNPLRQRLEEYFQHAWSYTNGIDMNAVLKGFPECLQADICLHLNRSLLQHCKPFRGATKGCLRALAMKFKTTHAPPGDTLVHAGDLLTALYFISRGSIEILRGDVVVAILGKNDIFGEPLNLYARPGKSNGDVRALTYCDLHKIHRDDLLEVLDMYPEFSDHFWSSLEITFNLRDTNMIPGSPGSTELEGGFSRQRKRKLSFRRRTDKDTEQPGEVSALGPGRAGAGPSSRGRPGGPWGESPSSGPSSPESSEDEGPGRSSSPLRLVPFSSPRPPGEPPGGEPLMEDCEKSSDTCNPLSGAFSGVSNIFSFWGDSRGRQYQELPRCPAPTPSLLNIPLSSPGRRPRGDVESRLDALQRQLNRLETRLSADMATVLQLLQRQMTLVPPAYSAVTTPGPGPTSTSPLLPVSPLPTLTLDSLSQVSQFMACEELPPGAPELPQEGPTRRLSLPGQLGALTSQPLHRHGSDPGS

Compound	hERG current change (%, negative = inhibition) at 1uM [%]
CC(=O)Nc1ccc(Nc2cc(C)nc3c(-c4ccccc4)cnn23)cc1	19
COC(=O)c1ccc(CN2CCN(Cc3ccccc3)C(CCO)C2)cc1 (centres unmarked)	2.22
O=C(CSc1nnc(-c2ccccc2Cl)n1Cc1ccco1)Nc1ccc2c(c1)OCCO2	9.49
CC1=C(C(=O)OCCOC(C)C)C(c2cc3c(cc2Br)OCO3)CC(=O)N1 (centres unmarked)	18.3
CN1C(=O)C2(C(C#N)=C(N)N(c3ccc(Cl)cc3)C3=C2C(=O)CC(C)(C)C3)c2ccccc21 (centres unmarked)	6.2
COc1ccc(-c2cc(C(=O)NCC3CCCO3)c3ccccc3n2)cc1 (centres unmarked)	-6.42
CCOC(=O)C1CCN(C(=O)c2c(-c3ccccc3)noc2C)CC1	8.08
O=C(CNC(=O)c1ccco1)NCC(=O)OCc1ccccc1Br	4.57
O=C(Nc1ccc(Cl)cn1)c1cccc(S(=O)(=O)N2CCOCC2)c1	-42.5
COc1ccc(NC(=O)c2ccco2)c(OC)c1	11.3
Cc1cc(C)c(O)c(-c2cc(C(=O)NCc3ccccc3)[nH]n2)c1	10.3
CC(OC(=O)Cn1[nH]c(=O)c2ccccc2c1=O)C(=O)Nc1ccc(F)cc1 (centres unmarked)	4.55
O=C(CSCc1ccc(F)cc1)Nc1ccc(F)cc1	11
CCN(C(=O)CSc1nc(-c2ccccc2)c(-c2ccccc2)[nH]1)C1CCS(=O)(=O)C1 (centres unmarked)	5.3
C/C(=N\NC(=O)c1ccccc1F)c1ccccn1	6
COc1ccc(/C=N/Nc2cc(C)nc(N3CCOCC3)n2)cc1	12.3
Cc1nc(N2CCCCC2C)c2c(C)c(C(=O)Nc3cccc(C(F)(F)F)c3)sc2n1 (centres unmarked)	7.9
O=[N+]([O-])c1ccc(S(=O)(=O)Nc2nc3ccccc3nc2Nc2ccccc2)cc1	0.293
CC(=O)Nc1ccc(OCC(O)Cn2c(C(C)C)nc3ccccc32)cc1 (centres unmarked)	22.6
CCCCn1nc(C(=O)Nc2cc(S(=O)(=O)N(C)C)ccc2C)c2ccccc2c1=O	-1.42
CCOC(=O)CC1CCCCN1Cc1cn[nH]c1-c1ccc(F)cc1F (centres unmarked)	-14.4
COC(=O)C1CC(O)CN1S(=O)(=O)c1ccc2ccccc2c1 (centres unmarked)	1.05
O=[N+]([O-])c1cccnc1Oc1ccccc1F	8.42

Compound	hERG current change (%, negative = inhibition) at 1uM [%]
CC(C)CC(=O)Nc1ccc(C(=O)Nc2cccc(O)c2)cc1	8.16
CCC1CCCCN1S(=O)(=O)c1ccc(C(=O)Nc2nnc(C3=COCCO3)o2)cc1 (centres unmarked)	10.5
O=C(COC(=O)c1n[nH]c2ccccc12)NC(=O)NCc1ccco1	4.13
CC(=O)c1cc(C)ccc1OC(=O)c1ccco1	7.39
CN(C)c1ccc(NC(=O)COC(=O)c2cc(=O)c3ccccc3o2)cc1	11.9
CCc1nc2ccccc2n1Cc1ccccc1OC	7.19
CN(C(=O)COC(=O)C1CCN(S(=O)(=O)c2ccc3c(c2)OCCO3)CC1)C1CCCCC1	5.05
Brc1ccc(CSc2ncnc3nc[nH]c23)cc1	4.34
Cc1ccc(NC(=O)NC(=O)N(C2CCCCC2)S(=O)(=O)c2ccccc2)cc1	-2.08
Cc1ccccc1-n1c(=O)n(Cc2ccc(C(=O)O)cc2)c(=O)c2[nH]cnc21	10.5
Cn1c(N)c(C(=O)COC(=O)CNS(=O)(=O)c2cccc(Cl)c2)c(=O)n(C)c1=O	10.6
CN1C(=O)/C(=C/c2ccccc2F)Sc2ccc(C(=O)N3CCCC3)cc21	8.75
O=S(=O)(CC(CN1CCOCC1)N1CCOCC1)c1ccccc1 (centres unmarked)	6.43
CC(OC(=O)CC1Sc2ccccc2NC1=O)C(=O)NC1CCCC1 (centres unmarked)	13.2
O=C(Nc1nccs1)c1cc(S(=O)(=O)N2CCCCC2)ccc1Cl	4.48
CN(CC(=O)Nc1ccccc1Br)C(=O)c1ccc(-c2ccc(Cl)cc2)o1	8.46
CCc1ccccc1N(CC(=O)NCC1CCCO1)C(=O)CCC(=O)Nc1nccs1 (centres unmarked)	14.2
COc1ccc(OCc2n[nH]c(=S)n2N)cc1	14.4
N#CCSc1nc2sc3c(c2c(=O)n1C1CCCCC1)CCCC3	3.79
Cc1ccc(C(=O)O/N=C\c2ccc(N3CCCCC3)c([N+](=O)[O-])c2)cc1	14.4
Cc1cccc2nc(COc3ccc4ccccc4c3Br)cn12	1.58
O=c1[nH]c(=O)n(CCC2=CCCCC2)c(O)c1C=NCCCn1ccnc1	-4.12
Cc1cc(=O)n(CC(C)O)c(O)c1C#N (centres unmarked)	16.4

Compound	hERG current change (%, negative = inhibition) at 1uM [%]
COc1ccccc1N1CCN(Cc2cccc(OC)c2OC)CC1	10.8
O=C(NCCCc1ccccc1)C(=O)NCC1OCCN1S(=O)(=O)c1cc(F)ccc1F (centres unmarked)	0.136
CC(=O)c1c(N2CCCC2)nc(=S)n(-c2ccccc2)c1C	6.02
Cc1ccccc1Nc1nc(N)nc(COC(=O)/C=C/c2ccco2)n1	8.81
Cc1cccn2c(=O)c3cc(C(=O)NC4CCCC4)c(=N)n(Cc4ccc(F)cc4)c3nc12	-19.4
CCN(CC)c1ccc(C=N/C(C#N)=C(\N)C#N)cc1	-8.05
Cc1nn(-c2ccccc2)c(Cl)c1C(=O)NCc1ccccc1F	20.5
COc1ccc(/C=C2\CCC(C3CCCC3)C2=O)c(OC)c1OC (centres unmarked)	12.1
O=C(COc1ccc(S(=O)(=O)N2CCCC2)cc1Cl)NCc1ccccn1	16.4
C[C@H](NC(=O)N1CCn2c1nc1ccccc12)C(=O)NCC1CCCO1 (some centres unmarked)	20.3
CC1=Nn2c(nnc2-c2cccs2)SC1	-0.963
CCOc1ccccc1CNC(=O)CCCC(=O)n1nc(C)c2ccccc21	14.2
CCn1c(CSc2nc(C)cs2)nc2cc(S(=O)(=O)N(C)C)ccc21	6.55
O=C(NC(=S)Nc1ccc(Br)cn1)c1cccs1	13.4
Cc1cccnc1Sc1c([N+](=O)[O-])ncn1C	10.1
CCOC(=O)c1ccc2c(c1)n(CC)c(C)[n+]2CC.[I-]	1.24
CSc1ncc(Cl)c(C(=O)Nc2ccc(NC(C)=O)cc2)n1	3.73
COc1ccc(CC(=O)NNC(=O)CCc2ccccc2)cc1	9.69
CCCCn1nnnc1SCC(=O)Nc1cccc(C)n1	-0.653
O=C(CN1CCOCC1)N/N=C/c1cc2ccccc2nc1Cl	-2.96
BrC(=C\c1ccccc1)/C=N/Nc1ccc2nncn2n1	1.99
Nc1c(Cl)ncnc1NCc1cccnc1	14.9
CCOC(=O)C1=C(C)NC(C)=C(C(=O)OCC)C1C(=O)OCC(=O)NC1(C#N)CCCCC1	-7.23

Compound	hERG current change (%, negative = inhibition) at 1uM [%]
COc1ccc(NC(=O)Cn2nc(C(F)(F)F)c3c2CCCC3)cc1OC	-0.233
Cc1ccc(-c2nc3ccccc3o2)cc1NC(=O)c1ccc2c(c1)OCO2	4.56
COc1ccc(CCN(C)C(=O)C2CCCN(C3CCN(Cc4ccccc4)CC3)C2)cc1OC (centres unmarked)	11.9
O=C(N/N=C/c1ccc([N+](=O)[O-])s1)c1cccnc1	12
O=C(Nc1ccc(Br)cc1Cl)NC1CC1	3.27
CC(C)N(Cc1ccccc1)C(=S)NC(=O)C1(C)CC1(Cl)Cl (centres unmarked)	1.46
O=C(O)CCCC(=O)Nc1nc2n(n1)C(c1ccc(F)cc1)CC(c1ccc(Cl)cc1)N2 (centres unmarked)	6.57
Fc1ccccc1SCc1nnc(-c2ccccc2Br)o1	10.7
Cc1ccc2c(c1)N(CCCC(=O)NCCCN1CCCC1=O)C(=O)CO2	0.168
Cc1cc(C)c(C#N)c(SCc2nc3ccccc3[nH]2)n1	-0.685
CCOC(=O)c1nn(-c2ccc(C)cc2)cc1C(=O)c1ccccc1	10.7
Cc1ccc(C(=O)NCC(=O)OCC(=O)c2ccccc2)s1	-0.567
NC(=O)CSc1nc2c(c(=O)n1-c1ccccc1)C1(CCCCC1)Cc1ccccc1-2	16.4
O=C(O)C(=O)O.O=C(c1cccs1)N1CCN(Cc2cccc([N+](=O)[O-])c2)CC1	-7.52
Cc1ccc(NC(=O)CC(C)S(=O)(=O)c2ccc3c(c2)NC(=O)CO3)c(Cl)c1 (centres unmarked)	8.92
COc1ccc(NC(=O)C2CCCN(S(=O)(=O)c3ccc(C)cc3)C2)cc1OC (centres unmarked)	21.2
O=C(c1ccc(F)cc1)n1c(=S)nc2ccccn21	11
CCOC(=O)c1c(NC(=O)CN2C(=O)NC(C)(c3ccccc3)C2=O)sc(C)c1C (centres unmarked)	10.1
CCC(C)NC(=O)c1cc2c(=O)n3cccc(C)c3nc2s1 (centres unmarked)	11.8
O=C(NCCc1c[nH]c2ccccc12)/C(=C/c1cccnc1)NC(=O)c1cccs1	9.36
